Source: paper PMC9911399
The other results are listed elsewhere or left out.

Each sequence was assayed against T1, RBFOX1 RRM (Homo sapiens) (UniProt Q9NWB1) (assay: EMSA). Conditions: HiTS-Eq, 1 nM pool, 10 min; buffer printed only for the single-RNA assays: 10 mM Tris pH 7.5, 150 mM NaCl, 3.4 mM EDTA, 0.001% NP-40, 30 C.
T1 sequence: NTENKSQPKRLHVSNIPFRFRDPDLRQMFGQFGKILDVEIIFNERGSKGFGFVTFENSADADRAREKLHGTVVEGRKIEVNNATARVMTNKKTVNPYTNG

Sequence	binding signal (KA relative to UGCAUGU)
GGGAGACCGGAAUUCAGAUUGUCCCCCAACCUUAAAUCCCGUCGUAGCCACCA / CAATCTGAATTCCGGTCTCCC / TGGTGGCTACGACGGGATT	0.00622
GGGAGACCGGAAUUCAGAUUGUCCCCCGACAUUAAAUCCCGUCGUAGCCACCA / CAATCTGAATTCCGGTCTCCC / TGGTGGCTACGACGGGATT	0.00391
GGGAGACCGGAAUUCAGAUUGUCCCCCAACGUUAAAUCCCGUCGUAGCCACCA / CAATCTGAATTCCGGTCTCCC / TGGTGGCTACGACGGGATT	0.00248
GGGAGACCGGAAUUCAGAUUGUCCCCCUUCCUUAAAUCCCGUCGUAGCCACCA / CAATCTGAATTCCGGTCTCCC / TGGTGGCTACGACGGGATT	0.00606
GGGAGACCGGAAUUCAGAUUGUCCUCCCUACUUAAAUCCCGUCGUAGCCACCA / CAATCTGAATTCCGGTCTCCC / TGGTGGCTACGACGGGATT	0.00055
GGGAGACCGGAAUUCAGAUUGUCCGGUACCCUUAAAUCCCGUCGUAGCCACCA / CAATCTGAATTCCGGTCTCCC / TGGTGGCTACGACGGGATT	0.0171
GGGAGACCGGAAUUCAGAUUGUCCCCCGAACUUAAAUCCCGUCGUAGCCACCA / CAATCTGAATTCCGGTCTCCC / TGGTGGCTACGACGGGATT	0.00073
GGGAGACCGGAAUUCAGAUUGUCCCCCCAAAUUAAAUCCCGUCGUAGCCACCA / CAATCTGAATTCCGGTCTCCC / TGGTGGCTACGACGGGATT	0.00513
GGGAGACCGGAAUUCAGAUUGUCCGGAAUCCUUAAAUCCCGUCGUAGCCACCA / CAATCTGAATTCCGGTCTCCC / TGGTGGCTACGACGGGATT	0.0219
GGGAGACCGGAAUUCAGAUUGUCCUGUCUCCUUAAAUCCCGUCGUAGCCACCA / CAATCTGAATTCCGGTCTCCC / TGGTGGCTACGACGGGATT	0.0254
GGGAGACCGGAAUUCAGAUUGUCCCCCUCACUUAAAUCCCGUCGUAGCCACCA / CAATCTGAATTCCGGTCTCCC / TGGTGGCTACGACGGGATT	0.0135
GGGAGACCGGAAUUCAGAUUGUCCCCCCUCAUUAAAUCCCGUCGUAGCCACCA / CAATCTGAATTCCGGTCTCCC / TGGTGGCTACGACGGGATT	0.00496
GGGAGACCGGAAUUCAGAUUGUCCCCACCUAUUAAAUCCCGUCGUAGCCACCA / CAATCTGAATTCCGGTCTCCC / TGGTGGCTACGACGGGATT	0.00326
GGGAGACCGGAAUUCAGAUUGUCCGACCUCCUUAAAUCCCGUCGUAGCCACCA / CAATCTGAATTCCGGTCTCCC / TGGTGGCTACGACGGGATT	0.0129
GGGAGACCGGAAUUCAGAUUGUCCACCUCCCUUAAAUCCCGUCGUAGCCACCA / CAATCTGAATTCCGGTCTCCC / TGGTGGCTACGACGGGATT	0.00375
GGGAGACCGGAAUUCAGAUUGUCCCCCAAUAUUAAAUCCCGUCGUAGCCACCA / CAATCTGAATTCCGGTCTCCC / TGGTGGCTACGACGGGATT	0.00186
GGGAGACCGGAAUUCAGAUUGUCCGGCCACCUUAAAUCCCGUCGUAGCCACCA / CAATCTGAATTCCGGTCTCCC / TGGTGGCTACGACGGGATT	0.003
GGGAGACCGGAAUUCAGAUUGUCCCCCGCACUUAAAUCCCGUCGUAGCCACCA / CAATCTGAATTCCGGTCTCCC / TGGTGGCTACGACGGGATT	0.00744
GGGAGACCGGAAUUCAGAUUGUCCUCCCCACUUAAAUCCCGUCGUAGCCACCA / CAATCTGAATTCCGGTCTCCC / TGGTGGCTACGACGGGATT	0.0143
GGGAGACCGGAAUUCAGAUUGUCCCCCACAAUUAAAUCCCGUCGUAGCCACCA / CAATCTGAATTCCGGTCTCCC / TGGTGGCTACGACGGGATT	0.00445

Sequence	binding signal (KA relative to UGCAUGU)
GGGAGACCGGAAUUCAGAUUGUCCGGCACCCUUAAAUCCCGUCGUAGCCACCA / CAATCTGAATTCCGGTCTCCC / TGGTGGCTACGACGGGATT	0.00858
GGGAGACCGGAAUUCAGAUUGUCCCCCUAUCUUAAAUCCCGUCGUAGCCACCA / CAATCTGAATTCCGGTCTCCC / TGGTGGCTACGACGGGATT	0.00304
GGGAGACCGGAAUUCAGAUUGUCCACUCCCCUUAAAUCCCGUCGUAGCCACCA / CAATCTGAATTCCGGTCTCCC / TGGTGGCTACGACGGGATT	0.00134
GGGAGACCGGAAUUCAGAUUGUCCUCCGGUCUUAAAUCCCGUCGUAGCCACCA / CAATCTGAATTCCGGTCTCCC / TGGTGGCTACGACGGGATT	0.00749
GGGAGACCGGAAUUCAGAUUGUCCACUCCCAUUAAAUCCCGUCGUAGCCACCA / CAATCTGAATTCCGGTCTCCC / TGGTGGCTACGACGGGATT	0.00145
GGGAGACCGGAAUUCAGAUUGUCCCCCUACAUUAAAUCCCGUCGUAGCCACCA / CAATCTGAATTCCGGTCTCCC / TGGTGGCTACGACGGGATT	0.00906
GGGAGACCGGAAUUCAGAUUGUCCCCCGCCCUUAAAUCCCGUCGUAGCCACCA / CAATCTGAATTCCGGTCTCCC / TGGTGGCTACGACGGGATT	0.00976
GGGAGACCGGAAUUCAGAUUGUCCCCCCACUUUAAAUCCCGUCGUAGCCACCA / CAATCTGAATTCCGGTCTCCC / TGGTGGCTACGACGGGATT	0.000187
GGGAGACCGGAAUUCAGAUUGUCCGGUCAAAUUAAAUCCCGUCGUAGCCACCA / CAATCTGAATTCCGGTCTCCC / TGGTGGCTACGACGGGATT	0.00184
GGGAGACCGGAAUUCAGAUUGUCCCCCAAACUUAAAUCCCGUCGUAGCCACCA / CAATCTGAATTCCGGTCTCCC / TGGTGGCTACGACGGGATT	0.00243
GGGAGACCGGAAUUCAGAUUGUCCUCCCCUCUUAAAUCCCGUCGUAGCCACCA / CAATCTGAATTCCGGTCTCCC / TGGTGGCTACGACGGGATT	0.0188
GGGAGACCGGAAUUCAGAUUGUCCCCUCCCGUUAAAUCCCGUCGUAGCCACCA / CAATCTGAATTCCGGTCTCCC / TGGTGGCTACGACGGGATT	0.00643
GGGAGACCGGAAUUCAGAUUGUCCGAUCCCCUUAAAUCCCGUCGUAGCCACCA / CAATCTGAATTCCGGTCTCCC / TGGTGGCTACGACGGGATT	0.00406
GGGAGACCGGAAUUCAGAUUGUCCCUCCCACUUAAAUCCCGUCGUAGCCACCA / CAATCTGAATTCCGGTCTCCC / TGGTGGCTACGACGGGATT	0.000116
GGGAGACCGGAAUUCAGAUUGUCCAACUCCCUUAAAUCCCGUCGUAGCCACCA / CAATCTGAATTCCGGTCTCCC / TGGTGGCTACGACGGGATT	0.00265
GGGAGACCGGAAUUCAGAUUGUCCUCCCAAAUUAAAUCCCGUCGUAGCCACCA / CAATCTGAATTCCGGTCTCCC / TGGTGGCTACGACGGGATT	0.00175
GGGAGACCGGAAUUCAGAUUGUCCGUUCUCCUUAAAUCCCGUCGUAGCCACCA / CAATCTGAATTCCGGTCTCCC / TGGTGGCTACGACGGGATT	0.0205
GGGAGACCGGAAUUCAGAUUGUCCCCCCCAAUUAAAUCCCGUCGUAGCCACCA / CAATCTGAATTCCGGTCTCCC / TGGTGGCTACGACGGGATT	0.0149
GGGAGACCGGAAUUCAGAUUGUCCGGUCAACUUAAAUCCCGUCGUAGCCACCA / CAATCTGAATTCCGGTCTCCC / TGGTGGCTACGACGGGATT	0.00281
